Where a chain is given by its changes, count along the chain named. Numbers in names are those of the source. ± gives the standard deviation of the averaged measurements. Laboratory Escherichia coli strains with one amino-acid change in an essential protein, pooled on minimal glucose agar with carbenicillin or gentamicin at twice the control MIC (plus kanamycin and chloramphenicol for the plasmids), 48 h. Fold change of barcode share against drug-free plates; higher = less susceptible. Active = above 20 in both replicates (the paper's putatively resistant). '<' = one read or none on drug, '>' = one read or none on a drug-free plate. Shares are relative, so most strains fall below 1 when a few take over. Listed are strains with at least 15 reads on both drug-free plates, and hits; most hits rest on fewer reference reads. Replicate rank correlation about 0.5. Edits are read from barcodes.
B1: psd L96Q (protein)
chain: MLNSFKLSLQYILPKLWLTRLAGWGASKRAGWLTKLVIDLFVKYYKVDMKEAQKPDTASYRTFNEFFVRPLRDEVRPIDTDPNVLVMPADGVISQQGKIEEDKILQAKGHNYSLEALLAGNYLMADLFRNGTFVTTYLSPRDYHRVHMPCNGILREMIYVPGDLFSVNHLTAQNVPNLFARNERVICLFDTEFGPMAQILVGATIVGSIETVWAGTITPPREGIIKRWTWPAGENDGSVALLKGQEMGRFKLGSTVINLFAPGKVNLVEQLESLSVTKIGQPLAVSTETFVTPDAEPAPLPAEEIEAEHDASPLVDDKKDQV
B2: psd L96P (protein)
chain: B1 chain with Q96P
B3: psd V134W (protein)
chain: B1 chain with Q96L, V134W
B4: psd V134Q (protein)
chain: B1 chain with Q96L, V134Q
B5: psd V256A (protein)
chain: B1 chain with Q96L, V256A
B6: psd V256Q (protein)
chain: B1 chain with Q96L, V256Q
B7: psd I257A (protein)
chain: B1 chain with Q96L, I257A
B8: psd I257W (protein)
chain: B1 chain with Q96L, I257W
B9: psd I257Q (protein)
chain: B1 chain with Q96L, I257Q
B10: pssA V346A (protein)
chain: MLSKFKRNKHQQHLAQLPKISQSVDDVDFFYAPADFRETLLEKIASAKQRICIVALYLEQDDGGKGILNALYEAKRQRPELDVRVLVDWHRAQRGRIGAAASNTNADWYCRMAQENPGVDVPVYGVPINTREALGVLHFKGFIIDDSVLYSGASLNDVYLHQHDKYRYDRYHLIRNRKMSDIMFEWVTQNIMNGRGVNRLDDVNRPKSPEIKNDIRLFRQELRDAAYHFQGDADNDQLSVTPLVGLGKSSLLNKTIFHLMPCAEQKLTICTPYFNLPAILVRNIIQLLREGKKVEIIVGDKTANDFYIPEDEPFKIIGALPYLYEINLRRFLSRLQYYVNTDQLVARLWKDDDNTYHLKGMWVDDKWMLITGNNLNPRAWRLDLENAILIHDPQLELAPQREKELELIREHTTIVKHYRDLQSIADYPVKVRKLIRRLRRIRIDRLISRIL
B11: pssA V346P (protein)
chain: B10 chain with A346P
B12: pssA I370W (protein)
chain: B10 chain with A346V, I370W
B13: pssA I370Q (protein)
chain: B10 chain with A346V, I370Q

These proteins were tested against Escherichia coli (laboratory strain) (assay: barcode share on antibiotic plates over drug-free plates; higher = less susceptible). Conditions: antibiotic: carbenicillin; 2× MIC (3.1 µg/mL).
Protocol: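 A pool of E. coli strains, each edited to carry one amino-acid change in an essential protein, was grown for 48 h on minimal glucose agar with or without antibiotic; strain barcodes were sequenced; mean of two replicates.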

Row | Protein | fold change of barcode share
1 | B1 | 0.466 ± 0.31
2 | B2 | 0.271 ± 0.1
3 | B3 | 0.265 ± 0.1
4 | B4 | 0.587 ± 0.22
5 | B5 | 0.33 ± 0.05
6 | B6 | 0.484 ± 0.017
7 | B7 | 0.453 ± 0.13
8 | B8 | > 73 [active]
9 | B9 | 0.499 ± 0.095
10 | B10 | 0.123 ± 0.033
11 | B11 | 0.322 ± 0.36
12 | B12 | 0.217 ± 0.089
13 | B13 | 0.2 ± 0.021

Same assay, conditions: antibiotic: gentamicin; 2× MIC (MIC 0.45 µg/mL)

Row | Protein | fold change of barcode share
14 | B1 | < 0.0127
15 | B2 | < 0.00822
16 | B3 | < 0.0117
17 | B4 | < 0.00841
18 | B5 | 0.00351 ± 0.0013
19 | B6 | 0.00883 ± 0.009
20 | B7 | 0.0261 ± 0.0026
21 | B9 | 0.00784 ± 0.0035
22 | B11 | < 0.0101
23 | B12 | < 0.0107
24 | B13 | < 0.00973
